Patent US20250205349A1, “ANTI-HUMAN TROP2 ANTIBODY-CAMPTOTHECIN DRUG CONJUGATE AND MEDICAL USE THEREOF” (SYSTIMMUNE, INC., priority 2021, published 2025)
“Also recorded” adds a separate entry of the source.

T1: recombinant TROP2-His*6 antigen (Homo sapiens, UniProt P09758)
T1 construct: His*6
T1 sequence (P09758 27-323): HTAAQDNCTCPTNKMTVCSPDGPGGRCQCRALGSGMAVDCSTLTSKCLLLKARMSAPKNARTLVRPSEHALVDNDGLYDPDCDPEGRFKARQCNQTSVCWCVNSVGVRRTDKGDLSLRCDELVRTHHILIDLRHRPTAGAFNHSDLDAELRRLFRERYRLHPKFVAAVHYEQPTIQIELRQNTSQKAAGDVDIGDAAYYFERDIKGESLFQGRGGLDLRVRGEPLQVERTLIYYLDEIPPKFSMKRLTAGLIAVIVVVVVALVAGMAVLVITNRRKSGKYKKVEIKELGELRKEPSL

B1: ADC-2 (conjugate)
heavy: QVQLVQSGAEVKKPGASVKLSCKASGYTFTSFDINWVRQAPEQRLEWMGWIFPGDGNTKYSQKFQGRATITRDTSASTAYMELSSLRSEDTAVYYCVRGEALYYFDYWGQGTLVTVSS[human IgG1 constant region not shown]
light: DIQMTQSPSSLSASVGDRVTITCRASQDINKYLAWYQQKPGKVPKLLIYSTSTLQSGVPSRFSGSGSGTDFTLTISSLQPEDVATYYCLQYDDLFTFGQGTKLEIKRTVAAPSVFIFPPSDEQLKSGTASVVCLLNNFYPREAKVQWKVDNALQSGNSQESVTEQDSKDSTYSLSSTLTLSKADYEKHKVYACEVTHQGLSSPVTKSFNRGEC
B2: ADC-12 (conjugate)
heavy: B1 heavy
light: B1 light
B3: ADC-6 (conjugate)
heavy: B1 heavy
light: B1 light
B4: ADC-10 (conjugate)
heavy: B1 heavy
light: B1 light

Key:
[1] = target: T1, recombinant TROP2-His*6 antigen; experiment: Double-antigen sandwich ELISA, relative affinity to TROP2; type: binding; settings: OD450 nm, EC50 compared
Protocol: The recombinant TROP2-His*6 antigen was coated on the plate and then blocked with 1% bovine serum albumin; hu4D3 and the corresponding ADC and TINA1 and the corresponding ADC were diluted respectively, and then serially diluted 3 folds at a starting concentration of 2000 ng/mL respectively, for a total of 11 concentrations. After the sample was incubated on the coated elisa plate for a period of time, the secondary antibody labeled by goat anti-human Fc-HRP was added for incubation. Finally, TMB color development was performed and terminated by sulfuric acid solution, and the absorption value at 450 nm was detected on an elisa plate. The results are plotted on concentration at OD450 nm.

[2] = test system: human tumor cell line (BxPC-3); experiment: In vitro drug efficacy of antibodies and ADCs, MTS cell viability; type: cell-based; settings: for IC50: BxPC-3, 5 days, MTS; for in vitro cytotoxicity (in words): BxPC-3 cells
Protocol: In the present invention, a human tumor cell line (BxPC-3) was used as an experimental model to evaluate the in vitro efficacy of ADCs. A certain number of tumor cells were inoculated into a 96-well plate, and gradient dilutions of the test antibody and the corresponding ADC were added to the cells, the cells were treated for 5 days, cell viability was detected by using MTS, and IC50 was calculated to evaluate the in vitro inhibitory effect of the test antibody and ADCs on the tumor cell line. The cells were treated for 5 days with the antibody drugs having initial concentration of 500 nM, diluted 7 folds, with a total of 8 concentration points. Finally, the cell survival was calculated as: survival rate=(experimental group-blank group)/(control group-blank group)×100%. Then, by using Graph Pad Prism, the curve was fitted and the half inhibitory concentration (IC50) was calculated.

[3] = Percentage of monomer of ADCs by SEC-HPLC; type: physicochemical
Protocol: • Chromatography column: Biocore SEC-300 5 μm, 4.6×300 mm; • Manufacturer: NanoChrom, Product code: B213-050030-04630S; • Mobile phase: 50 mM PB+300 mM NaCl+200 mM Arg+5% IPA, pH=6.5;
• Chromatography column: ACQUITY UPLC Protein SEC 4.6×150 mm […] • Manufacturer: waters Product code: 186005225 • Mobile phase: 50 mM PB+300 mM NaCl+200 mM Arg+5% IPA, pH=6.5

[4] = test system: BXPC3; experiment: In vivo drug efficacy, BXPC3 single tumor model; settings: BXPC3 tumor-bearing BALB/c nude mice, tail vein once a week, four times
Protocol: (§1) The tumors were measured twice a week to evaluate the inhibitory effects of test antibodies and ADCs on tumor cell lines.

[5] = test system: A431+SW620; experiment: In vivo drug efficacy, A431+SW620 heterogeneous tumor; parameters: species or system BALB/c nude mice; settings: for in vivo efficacy (in words): BALB/c nude mice, tail vein once a week, four times
Protocol: as §1

[6] = Protocol: The mixture of an ADC and IgG-depleted plasma were formulated with the final concentration of ADC being 0.6 mg/mL. The plasma mixture was incubated in a water bath box in a 37° C. incubator. The incubation time was set to 0 days, 3 days, and 7 days. At the same time, the unincubated plasma control was set. The incubated sample was purified and extracted and then tested for the DAR to reflect the stability of the ADC in plasma.
[7] = test system: SW620; experiment: In vitro drug efficacy test of ADCs, Alamar Blue or MTS; type: cell-based, human; settings: SW620, 5 days
Protocol: (§2) The in vitro efficacy of ADCs was evaluated by using experimental models of various human tumor cell lines (N87, SW620, Fadu, and HCC827) and SW620+A431 heterogeneous tumor.
(§3) A certain number of tumor cells were inoculated into a 96-well plate, and gradient dilutions of the test antibody and the corresponding ADC were added to the cells, the cells were treated for 5 days, cell viability was detected by using Alamar Blue or MTS, and IC50 was calculated to evaluate the inhibitory effect of the test ADCs on the tumor cell line. The cells were treated for 5 days with the antibody drugs having initial concentration of 500 nM, diluted at 7 times, with a total of 8 concentration points. Finally, the cell survival was calculated as: survival rate=(experimental group-blank group)/(control group-blank group)×100%. Then, by using Graph Pad Prism, the curve was fitted and the half inhibitory concentration (IC50) was calculated.

[8] = test system: SW620 + A431; experiment: as above; type: cell-based, human; settings: SW620 + A431, 5 days
Protocol: as §2, §3

[9] = test system: HCC827; experiment: as above; type: cell-based, human; settings: HCC827, 5 days
Protocol: as §2, §3

[10] = test system: Fadu; experiment: as above; type: cell-based, human; settings: 5 days
Protocol: as §2, §3

[11] = test system: N87; experiment: as above; type: cell-based, human; settings: N87, 5 days
Protocol: as §2, §3

| Molecule | affinity for antigen TROP2 compared with the corresponding antibody [1] | IC50 [2] [nM] | in vitro cytotoxicity (in words) [2] | Aggregate % [3] [%] | Degradation % [3] [%] | Monomer % [3] [%] | in vivo efficacy (in words) [4] | bystander effect [5] | in vivo efficacy (in words) [5] | DAR Incubated in plasma for 0 days ([6]; ADC 0.6 mg/mL in IgG-depleted plasma, 37° C., 0 days) | DAR Incubated in plasma for 3 days ([6]; ADC 0.6 mg/mL in IgG-depleted plasma, 37° C., 3 days) | DAR Incubated in plasma for 7 days ([6]; ADC 0.6 mg/mL in IgG-depleted plasma, 37° C., 7 days) | DAR Unincubated ([6]; unincubated control) | IC50 [7] [nM] | IC50 [8] [nM] | IC50 [9] [nM] | IC50 [10] [nM] | IC50 [11] [nM] |
| --- | --- | --- | --- | --- | --- | --- | --- | --- | --- | --- | --- | --- | --- | --- | --- | --- | --- | --- |
| B1 | maintains the same affinity | 84.9 | significantly greater than that of DS1062a | 1.276 | 0 | 98.724 |  |  |  |  |  |  |  |  |  |  |  |  |
| B2 | maintains the same affinity | 2.13 | significantly greater than that of DS1062a |  |  |  | superior to that of DS1062a and ADC-1; also recorded: superior to those of DS1062a | good “bystander effect” | superior to those of DS1062a |  |  |  |  |  |  |  |  |  |
| B3 | maintains the same affinity | 3.31 | significantly greater than that of DS1062a | 1.236 | 0 | 98.764 | superior to that of DS1062a and ADC-1; also recorded: superior to those of DS1062a | good “bystander effect” | superior to those of DS1062a | 7.30 | 7.25 | 7.26 | 7.38 | 17.1 | 0.719 | 1.33 | 3.16 | 4.05 |
| B4 | maintains the same affinity | 35.9 | significantly greater than that of DS1062a | 2.530 | 0 | 97.470 | superior to that of DS1062a and ADC-1; also recorded: superior to those of DS1062a |  |  |  |  |  |  |  |  |  |  |  |
